# Data as given in publication PMC9911399, “Two distinct binding modes provide the RNA-binding protein RbFox with extraordinary sequence specificity”.
# Numbering of substitutions follows the chain as printed; changes in the protein carry UniProt numbers. The list shows a part of the results.
# T1: RBFOX1 RRM (Homo sapiens, UniProt Q9NWB1 109-208)
# T1 sequence: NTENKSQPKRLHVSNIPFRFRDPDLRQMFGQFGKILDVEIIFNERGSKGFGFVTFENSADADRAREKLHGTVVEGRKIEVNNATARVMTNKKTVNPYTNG
# B1: UGUUAUU (DNA:RNA)
# RNA: GGGAGACCGGAAUUCAGAUUGUCCUGUUAUUUUAAAUCCCGUCGUAGCCACCA
# DNA 1: CAATCTGAATTCCGGTCTCCC
# DNA 2: TGGTGGCTACGACGGGATT
# B2: GAGUUAU (DNA:RNA)
# RNA: B1 RNA with U25G, G26A, U27G, A29U, U30A
# DNA 1: CAATCTGAATTCCGGTCTCCC
# DNA 2: TGGTGGCTACGACGGGATT
# B3: UGAUGAG (DNA:RNA)
# RNA: B1 RNA with U27A, A29G, U30A, U31G
# DNA 1: CAATCTGAATTCCGGTCTCCC
# DNA 2: TGGTGGCTACGACGGGATT
# B4: AUUUGAA (DNA:RNA)
# RNA: B1 RNA with U25A, G26U, A29G, U30A, U31A
# DNA 1: CAATCTGAATTCCGGTCTCCC
# DNA 2: TGGTGGCTACGACGGGATT
# B5: UCACAGG (DNA:RNA)
# RNA: B1 RNA with G26C, U27A, U28C, U30G, U31G
# DNA 1: CAATCTGAATTCCGGTCTCCC
# DNA 2: TGGTGGCTACGACGGGATT
# B6: GCCAUGG (DNA:RNA)
# RNA: GGGAGACCGGAAUUCAGAUUGUCCGCCAUGGUUAAAUCCCGUCGUAGCCACCA
# DNA 1: CAATCTGAATTCCGGTCTCCC
# DNA 2: TGGTGGCTACGACGGGATT
# B7: CCCGUCA (DNA:RNA)
# RNA: B6 RNA with G25C, A28G, G30C, G31A
# DNA 1: CAATCTGAATTCCGGTCTCCC
# DNA 2: TGGTGGCTACGACGGGATT
# B8: AAAUCCU (DNA:RNA)
# RNA: B1 RNA with U25A, G26A, U27A, A29C, U30C
# DNA 1: CAATCTGAATTCCGGTCTCCC
# DNA 2: TGGTGGCTACGACGGGATT
# B9: GUGCACG (DNA:RNA)
# RNA: B6 RNA with C26U, C27G, A28C, U29A, G30C
# DNA 1: CAATCTGAATTCCGGTCTCCC
# DNA 2: TGGTGGCTACGACGGGATT
# Molecular target: T1, RBFOX1 RRM
# Assay: EMSA; HiTS-Eq, 1 nM pool, 10 min; buffer printed only for the single-RNA assays: 10 mM Tris pH 7.5, 150 mM NaCl, 3.4 mM EDTA, 0.001% NP-40, 30 C
# Conditions: tags: His6 N-terminal (pET28a); label: 5' 32P
# Summary of the method: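 Relative association constants, normalised to the cognate motif, were derived by comparing read counts of each RNA species with those of the control reaction. The RNA sequenced was the free fraction, separated by 8% native PAGE after a 10 min equilibration in 50 µL of 1 nM 5′-radiolabelled RNA (7 randomized nucleotides) with increasing concentrations of purified wild-type or mutant RbFox RRM.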
row,Binder,binding signal
1,B1,0.00803 KA relative to UGCAUGU
2,B2,0.00747 KA relative to UGCAUGU
3,B3,0.0266 KA relative to UGCAUGU
4,B4,0.012 KA relative to UGCAUGU
5,B5,0.00827 KA relative to UGCAUGU
6,B6,0.0159 KA relative to UGCAUGU
7,B7,0.00389 KA relative to UGCAUGU
8,B8,0.00113 KA relative to UGCAUGU
9,B9,0.62 KA relative to UGCAUGU
